According to PubChem BioAssay AID1768 (National Center for Advancing Translational Sciences (NCATS), 2009):
Hit rate of the full screen: of about 270,000 compounds, about 620 (0.23%) were called active. This list was built around the results that the source calls inconclusive (neither active nor inactive); the mix of calls is not that of the screen. Calls come from the whole dose curve; as a rule, active = well fitted inhibition curve with a large enough effect in the polarisation, with a control signal flat (not every such curve was filed as active); inconclusive = small, poorly fitted or top-dose-only effect, or effect the other way, or a change in a side signal; inactive = no such curve, though single readings can be large or run the other way; the % refers to the polarisation. Where the call is inconclusive, the potency comes from a doubtful curve fit. A note “side channel” means that the fit belongs to a control or component signal, not to the main read-out.

Each compound was assayed against Menin (Homo sapiens) (UniProt O00255) (assay: qHTS Assay for Inhibitors Targeting the Menin-MLL Interaction in MLL Related Leukemias: Competition With Texas Red Labeled MLL-derived Mutant Peptide). Conditions: fluorescence polarization; series mostly up to 61.6 µM.
Potency is the fitted concentration of half-maximal effect; tags give direction and shape of the fitted curve or compound fluorescence and quenching.

Sequence of UniProt O00255 (O00255 whole entry, looked up): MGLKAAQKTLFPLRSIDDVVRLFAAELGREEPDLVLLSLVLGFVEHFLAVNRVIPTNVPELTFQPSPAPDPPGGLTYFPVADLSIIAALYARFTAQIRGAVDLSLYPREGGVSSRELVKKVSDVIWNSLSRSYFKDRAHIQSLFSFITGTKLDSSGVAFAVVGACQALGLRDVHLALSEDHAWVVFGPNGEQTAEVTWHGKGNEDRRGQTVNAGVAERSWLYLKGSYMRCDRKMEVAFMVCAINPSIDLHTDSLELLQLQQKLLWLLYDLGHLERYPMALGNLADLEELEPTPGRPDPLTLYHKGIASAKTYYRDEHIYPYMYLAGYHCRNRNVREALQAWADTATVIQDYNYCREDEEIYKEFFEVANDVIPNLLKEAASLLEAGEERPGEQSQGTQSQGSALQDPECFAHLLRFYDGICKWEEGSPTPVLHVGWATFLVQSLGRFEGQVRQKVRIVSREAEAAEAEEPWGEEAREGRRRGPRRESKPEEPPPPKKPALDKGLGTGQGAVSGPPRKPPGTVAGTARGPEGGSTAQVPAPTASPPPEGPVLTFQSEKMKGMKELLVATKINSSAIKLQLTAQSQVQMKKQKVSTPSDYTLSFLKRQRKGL

Potency, inconclusive:
COc1ccccc1NC(=O)CC(=O)c1cccc([N+](=O)[O-])c1 22.4 µM [quencher, single point]
COc1ccc(CC(=O)Nc2ccc(C(C)=O)cc2)cc1 35.5 µM [quencher, side channel, partial curve]
Cc1cc(C)c(C)c(S(=O)(=O)N(C)C2CCN(C)CC2)c1C 14.1 µM [inhibitor, partial curve]
COc1ccc(C(=O)Nc2nnc(S(=O)(=O)N3CCC(C)CC3)s2)cc1OC 28.2 µM [quencher, side channel, partial curve]
C[C@@H]1C(c2ccc(F)cc2)=NN(c2ccc(Br)cc2)[C@H]1C(=O)N1CCOC1=O 3.98 µM [quencher, side channel, full curve, poor fit]
CCCCN(CCCNC(=O)CN1C(=O)COc2ccccc21)c1ccccc1 35.5 µM [inhibitor, partial curve]
CCc1cc2c(=O)c(-c3nc4ccccc4n3C)coc2c(CN2CCCC(C)C2)c1O (centres undefined) 28.2 µM [inhibitor, single point]
COc1cccc(/C=C2\SC(=O)N(CCC(=O)NNC(=O)c3cccc(Cl)c3)C2=O)c1 35.5 µM [inhibitor, single point]
NC(=O)c1ccccc1NC(=O)c1ccc2ccccc2c1 39.8 µM [fluorescent, single point]
CCN1CCN(c2cc(C(C)(C)C)nc3c(-c4ccccc4)c(C)nn23)CC1 8.91 µM [fluorescent, side channel, full curve]
COc1ccc(-c2cc(N)n(S(=O)(=O)c3ccc(F)cc3)n2)cc1OC 11.2 µM [quencher, side channel, partial curve]
CC(c1cccs1)N(Cc1ccco1)C(=S)Nc1ccc(F)c(Cl)c1 (centres undefined) 14.1 µM [quencher, side channel, partial curve]
Cc1ccc(OCC(O)C(C)NC(C)C)c2c1CCC2 (centres undefined) 22.4 µM [fluorescent, side channel, single point]
CC(C)Oc1cccc(C(=O)NC(=S)Nc2cccnc2)c1 10 µM [inhibitor, partial curve]
COc1ccc(Nc2nc(-c3sc(N)nc3C)cs2)cc1 31.6 µM [quencher, side channel, partial curve]
CC(C)Oc1ccc(CNCCC2(C(C)C)CCOC(C)(C)C2)cc1 (centres undefined) 22.4 µM [fluorescent, side channel, single point]
COc1ccc(CCNCC(O)COc2c(C)cccc2C)cc1OC (centres undefined) 39.8 µM [inhibitor, single point]
Cc1ccc(S(=O)(=O)N/N=c2\oc3ccccc3cc2C(=O)Nc2cccc(C)c2)cc1 10 µM [quencher, side channel, partial curve]
Oc1cccc(/C=N/c2c(-c3ccco3)nc3ccccn23)c1 39.8 µM [inhibitor, single point]
CCOc1ccc(N=C2SC(C(=O)Nc3ccccc3C#N)C(N)=C2C(=O)Nc2ccc(Cl)cc2)cc1 (centres undefined) 2.82 µM [quencher, side channel, full curve]
CCCc1nc2ccccc2c(C(=O)OCC(=O)Nc2cccc(S(=O)(=O)N3CCOCC3)c2)c1CC 5.01 µM [quencher, side channel, partial curve]
C=CCN1C(=O)/C(=C2/Sc3ccccc3N2CCCS(=O)(=O)O)SC1=S 22.4 µM [quencher, side channel, partial curve]
COc1ccc(C2SCCN2C(=S)Nc2ccc(Cl)cc2)cc1 (centres undefined) 15.8 µM [quencher, side channel, partial curve]
COC(=O)c1cc(NC(=O)c2cccc(C(F)(F)F)c2)c(=O)oc1C/C=N/OCc1cccc(Cl)c1Cl 12.6 µM [quencher, side channel, partial curve]
O=C1CCCc2ccccc2N1Cc1ccc(F)cc1 22.4 µM [fluorescent, side channel, partial curve]
O=C(Nc1ccc(F)c(Cl)c1)NC1CC1 0.631 µM [inhibitor, full curve, poor fit]
Cc1ccc(C(=O)Nc2ccc(S(=O)(=O)NCc3ccco3)cc2)cc1 39.8 µM [fluorescent, side channel, single point]
O=C(Cc1ccc2c(c1)CCCC2)Nc1ccc2ccccc2c1 17.8 µM [quencher, side channel, single point]
CCSC1=C(C#N)C(c2ccc(Cl)cc2)C2=C(CCCC2=O)N1 (centres undefined) 31.6 µM [quencher, side channel, single point]
CC(C)COc1ccc(CNC(=S)N/N=C/c2ccc([N+](=O)[O-])cc2)cc1 8.91 µM [quencher, side channel, full curve]
CCCCOc1cc(C)nc(NCc2ccccc2)n1 2.24 µM [fluorescent, side channel, full curve, poor fit]
Cc1ccc2c(C(=O)N3CCN(c4ccccc4)CC3)cc(-c3cccnc3)nc2c1C 1.26 µM [fluorescent, side channel, full curve, poor fit]
COc1ccccc1NC(=O)c1ccccc1NC(=O)c1ccccc1C(=O)O 0.631 µM [inhibitor, full curve]
O=C(/C=C/c1ccco1)NC(=S)Nc1nc(-c2ccc3ccccc3c2)cs1 8.91 µM [quencher, side channel, partial curve]
COc1ccc(NC(=O)COC(=O)CCCOc2ccc(Cl)cc2Cl)cc1Cl 17.8 µM [quencher, side channel, partial curve]
O=C(C[n+]1cccc(C(=O)Nc2ccccc2)c1)c1ccc([N+](=O)[O-])cc1 14.1 µM [inhibitor, partial curve]
O=C(N/N=C/c1ccc(O)c(O)c1)NC12CC3CC(CC(C3)C1)C2 10 µM [quencher, partial curve, poor fit]
COCCNC(=O)C(c1ccc(OC)cc1)N(C(=O)Cn1nnc2ccccc21)c1cccnc1 (centres undefined) 3.55 µM [quencher, side channel, partial curve]
Cc1ccc2c(CN3CCN(Cc4ccccc4)CC3)cc(=O)oc2c1 12.6 µM [inhibitor, partial curve]
O=S(=O)(Nc1nc2ccccc2nc1Cl)c1ccc(Br)cc1 39.8 µM [quencher, side channel, single point]
CCN1C(=O)C(CC(=O)Nc2ccc(OC)cc2)N(Cc2cccs2)C1=S (centres undefined) 10 µM [quencher, side channel, partial curve]
COC(=O)c1ccc(C(=O)NC2CCSc3ccccc32)cc1 (centres undefined) 35.5 µM [fluorescent, side channel, single point]
CC1=Nc2cc(C(=O)N3CCCCC3)ccc2Sc2ccc(C)cc21 8.91 µM [fluorescent, side channel, partial curve]
Cc1ccc2c(c1)sc(-c1ccc(N(C)C)cc1)[n+]2C 39.8 µM [inhibitor, single point]
COc1ccc(COc2ccc(S(=O)(=O)N3CCCC3)cc2C(N)=O)cc1F 28.2 µM [fluorescent, side channel, partial curve]
S=c1[nH]nc(COc2ccc(Cl)cc2)n1-c1ccc(Cl)cc1 20 µM [quencher, side channel, partial curve]
COc1ccc(/C=C/C=C2\N=C(SC)SC2=O)cc1 35.5 µM [quencher, side channel, single point]
Cc1cc(-c2csc(N)n2)c(C)n1Cc1ccccc1 28.2 µM [quencher, side channel, single point]
COc1ccc2ccccc2c1CNCc1ccc(C)cc1 8.91 µM [fluorescent, side channel, partial curve]

Potency, inactive:
O=C(NCCc1ccccc1)C1CCC(=O)N1C1CCCC1 (centres undefined)
Cc1nc2c(C)cccn2c1C(=O)c1ccccc1
COCCCn1c(CCC(=O)O)ccc1-c1cccs1
Cc1ccc(C(=O)N2CCN3C(=O)c4ccccc4C23c2ccc(Cl)cc2)cc1 (centres undefined)
COc1ccc(C2C(C#N)=C(N)Oc3cc(C)n(Cc4ccncc4)c(=O)c32)cc1 (centres undefined)
COc1cc(SC)ccc1C(=O)N1CCC(Cc2ccccc2)CC1
CCOC(=O)c1c(CSc2nc(C)cc(C)c2C#N)n(C)c2cc(Br)c(OC(C)=O)cc12
CCCCNC(=S)N(Cc1c(C)noc1C)c1ccccc1
O=S(=O)(c1ccc(Oc2ccc(Br)cc2)cc1)N1CCOCC1
COc1ccc(C2Nc3ccccc3C(=O)N2c2ccccc2)cc1COc1ccccn1 (centres undefined)
